Assay results reported in US20260258106A1 (BEIJING NEOX BIOTECH, published 2026).

Columns and labels:
[1] = molecular target: IL-21R expressed on the surface of HuT78 cells (UniProt Q9HBE5 20-538, limits assumed); test: cell-based or functional assay
[2] = molecular target: T1, human IL-21R (ACRO, Catalog: ILR-H5226) (human, UniProt Q9HBE5 20-232, limits assumed); test: BLI (Octet R8), IL-21-Fc on Protein A sensor, IL-21R in solution
T1 construct: Bought soluble protein used as analyte in BLI; also called IL-21R protein; IL-21 receptor
Description: The affinity of mutant IL-21 to human IL-21R (ACRO, Catalog: ILR-H5226) was determined by label-free biolayer interferometry (Octet® R8, BLI) as follows:
2: The IL-21R protein was diluted with buffer (10 mM PBS+0.02% tween-20+0.1% BSA, pH 7.4) from the initial concentration of 1000 nM to 3.9 nM in a 4-fold gradient to yield a total of 5 concentrations: 1000 nM, 250 nM, 62.5 nM, 15.6 nM, and 3.9 nM, respectively.
4: The IL-21 mutant-Fc protein was loaded onto the Protein A sensor. The loading time was 90s. The mutant-Fc protein was then eluted and then equilibrated for 30 s. The mutant-Fe protein was then combined with 4 different concentrations of IL-21R protein. The binding time was 120 s. Finally, the bound IL-21R protein was eluted with a buffer. The dissociation time was 180 s.

- pSTAT3 activation(EC50, nM) [1]: 0.0394 nM
- Kd [2]: 5.08 nM
- koff [2]: 0.00355 s⁻¹
- kon [2]: 699000 M⁻¹ s⁻¹
B1: m103-Fc (Fc fusion)
chain: QGQDRHMIRMRQLIDIVDQLKNYVNDLVPEFLPAPEDVETNCEWSAFSCFQKAQLKSANTGNNERIINVSIKKLKRKPEGGGSEGGGSLTCPSCDSYEKKPPKEFLERFKSLLQKMIHQHLSSRTHGSEDS[human IgG1 Fc with changes not shown]
